According to paper PMC4336329 (PLoS ONE, 2015):
Screen size: about 310,000 compounds; about 14,000 (4.5%) showed an effect of 50% or more. Effects have a minus sign here. Some of the results follow.

What follows are molecules tested against human ether-à-go-go-related gene (hERG) potassium channel (human, UniProt Q12809) (assay: primary screen, population patch clamp on CHO cells stably expressing hERG).
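Further: peak tail current of the secondary pulse compared with the same well before compound.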

Sequence of human ether-à-go-go-related gene (hERG) potassium channel (Q12809 whole entry, looked up): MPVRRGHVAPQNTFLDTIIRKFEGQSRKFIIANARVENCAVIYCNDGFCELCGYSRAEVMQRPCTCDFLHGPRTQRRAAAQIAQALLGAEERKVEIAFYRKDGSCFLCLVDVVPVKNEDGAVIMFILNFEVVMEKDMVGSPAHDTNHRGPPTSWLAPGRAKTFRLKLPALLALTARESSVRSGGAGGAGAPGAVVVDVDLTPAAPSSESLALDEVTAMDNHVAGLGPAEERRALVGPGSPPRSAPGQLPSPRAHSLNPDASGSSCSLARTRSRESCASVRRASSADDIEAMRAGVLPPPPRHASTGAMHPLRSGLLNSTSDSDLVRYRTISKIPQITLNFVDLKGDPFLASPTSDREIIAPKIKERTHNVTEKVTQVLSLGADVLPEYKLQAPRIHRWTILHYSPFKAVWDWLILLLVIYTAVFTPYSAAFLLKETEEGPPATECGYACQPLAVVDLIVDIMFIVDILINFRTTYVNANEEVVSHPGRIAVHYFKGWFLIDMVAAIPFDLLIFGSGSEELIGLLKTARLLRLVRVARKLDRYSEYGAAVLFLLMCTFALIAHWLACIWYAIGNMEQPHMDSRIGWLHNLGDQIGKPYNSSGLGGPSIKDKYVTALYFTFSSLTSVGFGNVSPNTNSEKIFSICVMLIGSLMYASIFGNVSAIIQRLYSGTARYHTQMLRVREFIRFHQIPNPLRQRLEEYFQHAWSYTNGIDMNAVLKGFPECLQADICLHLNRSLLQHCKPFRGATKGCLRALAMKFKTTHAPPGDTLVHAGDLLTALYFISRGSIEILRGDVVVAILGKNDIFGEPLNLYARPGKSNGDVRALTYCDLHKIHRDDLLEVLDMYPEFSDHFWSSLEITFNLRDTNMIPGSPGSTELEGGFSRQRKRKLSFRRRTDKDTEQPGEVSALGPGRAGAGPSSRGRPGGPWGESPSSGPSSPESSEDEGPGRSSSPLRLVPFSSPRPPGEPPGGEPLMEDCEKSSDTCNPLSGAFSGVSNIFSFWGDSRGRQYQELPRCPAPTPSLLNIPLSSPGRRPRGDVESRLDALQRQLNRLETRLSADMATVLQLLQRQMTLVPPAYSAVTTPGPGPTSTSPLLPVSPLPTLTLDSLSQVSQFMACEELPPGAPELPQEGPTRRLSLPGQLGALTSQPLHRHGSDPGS

SMILES	hERG current change (%, negative = inhibition) at 10uM [%]
Cc1cc(N2CCOCC2)nc(SCC(=O)OCc2ccccc2)n1	-13.1
CC(=O)Nc1ccc(S(=O)(=O)NC2(C(F)(F)F)C(=O)NC(C)=C2C#N)cc1 (stereo not shown)	12.8
CCN(CC)C(=O)C(=O)Nc1ccc(OC)c(Cl)c1	28.7
Cc1ccc(NC(=O)Cn2nnc(C(=O)NCc3ccco3)c2N)c(C)c1	3.23
Cc1ccc(S(=O)(=O)NC(CC(C)C)C(=O)N2CCC(C)CC2)cc1 (stereo not shown)	-9.25
O=c1oc2ccccc2c(O)c1C=NCc1ccccn1	-3.48
Cc1c(NC(=O)CSc2nnc3c4ccccc4n(CCc4ccccc4)c3n2)c(=O)n(-c2ccccc2)n1C	-27.2
CC(C)Nc1nc(Cl)nc(Nc2ccccc2)n1	-3.65
CCCCCCC(=O)OCC(=O)c1ccc2c(c1)NC(=O)CO2	7.12
CC(C)(C)NC(=O)/C=C/c1cccs1	18.6
S=C(NCCc1ccccc1)Nc1ccc(Br)cc1	3.43
CCOc1ccc(S(=O)(=O)N/N=C2/CCCC(=O)C2)cc1	5.81
Cl.O=C(CCCN1CCc2[nH]c3ccc(F)cc3c2C1)c1ccc(F)cc1	-70.4
Clc1cccc(Cl)c1C1N2CCCN12 (stereo not shown)	11.4
Cn1cc(CCNC(=O)CC2C(=O)NCCN2CC(c2ccccc2)c2ccccc2)cn1 (stereo not shown)	14
CCC1(c2ccccc2)C(=O)N(C(=O)OC(C)(C)C)N1C(=O)OC(C)(C)C (stereo not shown)	18.2
COc1ccc(N2CCN(c3n[nH]c(N)n3)CC2)cc1	5.86
C/C(=N\NC(=O)c1cccc(S(=O)(=O)N2CCCC2)c1)c1cccs1	18.6
CSc1cccc(NC(=S)N(CCCN2CCCC2)Cc2cccn2Cc2ccc(Cl)cc2)c1	-28.1
CC(=O)c1c(C)nc2ccccc2c1N	-10.1
COc1ccc(C(=O)NCC(=O)OCc2csc(-c3ccccc3)n2)cc1	7.81
COc1cccc(/C=N/NC(=S)NCc2ccco2)c1OC	10.9

SMILES	hERG current change (%, negative = inhibition) at 10uM [%]
CC(C)(C)C(=O)NC1CCSC1=O (stereo not shown)	8.46
Cl.OC1CN=C2C=CC=CN2C1 (stereo not shown)	-2.41
O=C(c1cnn2cccnc12)N1CCN(Cc2ccc3c(c2)OCO3)CC1	5.97
O=C(NC1CCCCCC1)C1CC(=O)N(Cc2ccccc2)C1 (stereo not shown)	5.17
Cn1ncc(C#N)c1/N=C/N1CCOCC1	6.51
COc1cc(CN2CCN(C(=O)c3cccc4ccccc34)CC2)cc(OC)c1O.O=C(O)C(=O)O	-0.297
CCOC(=O)N1CCC(NC(=O)CCC(=O)N2CC(C)Oc3ccc(C)cc32)CC1 (stereo not shown)	10.8
COc1ccc(NC2=NCC(=O)N2c2ccccc2)c(OC)c1.Cl	8.26
COc1nc(SC)nc(Cl)c1Cc1ccc(OC(C)C)cc1	-0.66
COc1ccc(S(=O)(=O)NCC(=O)N(CC(=O)NCc2ccccc2)Cc2ccco2)cc1	-17
CCCS(=O)(=O)C(=C1Nc2ccccc2N1)S(=O)(=O)CCC	1.4
COCCOC(=O)c1c(C)oc2ccc(NS(=O)(=O)c3ccc(C)cc3)cc12	-15.3
Cc1occc1C(=O)Nc1cccc(Cl)c1Cl	-12.5
Cc1sc(NC(=O)c2ccco2)c(CN2CCN(Cc3ccccc3)CC2)c1C	3
Cn1c(N)c(C(=O)c2ccc(C#N)cc2)c(=O)n(C)c1=O	19.6
O=C(Cc1n[nH]c(=O)c2ccccc12)OCC(=O)c1ccc2c(c1)OCCO2	8.98
CCCCCC(=O)Nc1ccc(C(=O)COC(=O)Cn2cnc3c2c(=O)n(C)c(=O)n3C)cc1	-26.3
Nc1n[nH]c(N)c1N=Nc1ccc(F)cc1	26.7
COc1ccc(CN(C)S(=O)(=O)c2nnc(NC(=O)c3ccccc3)s2)cc1OC	1.89
CC(c1nc2ccccc2o1)N1C(=O)c2ccccc2C1=O (stereo not shown)	2.58
O=C(NC(=S)Nc1ccccc1N1CCOCC1)c1ccc(-c2cc(Cl)ccc2Cl)o1	-0.123
CN(C)S(=O)(=O)c1cccc(C(=O)Nc2ccc3c(c2)CCC3)c1	-21.9

SMILES	hERG current change (%, negative = inhibition) at 10uM [%]
CCOC(=O)COc1ccc(/C=C2/SC(=Nc3ccccc3)N(Cc3cccnc3)C2=O)cc1OC	13.3
O=C(Cc1ccsc1)Nc1cc(F)ccc1F	16.3
COc1ccc(CNC(=O)C(=O)NCC2OCCN2S(=O)(=O)c2ccc(OC)cc2)cc1 (stereo not shown)	2.86
O=C(C1=C(O)C(=O)N(CCN2CCOCC2)C1c1cccs1)c1cc2ccccc2o1 (stereo not shown)	4.99
O=C(Cn1ccc2cc(S(=O)(=O)N3CCCC3)ccc21)NCCc1ccccc1	1.95
CC(C)(C)CN1CCN(CC#Cc2ccccc2)CC1CCO (stereo not shown)	0.803
COc1ccc(/C=N/NC(=O)c2ccc[nH]2)cc1	9.79
COc1cc2[nH]c(=S)nc(NCCc3ccc(S(N)(=O)=O)cc3)c2cc1OC	25.3
Cc1ccccc1NC(=O)CSc1nc(COc2ccccc2)nc2ccccc12	11
Cc1cc(C)c(C(=O)/C=C/c2ccco2)c(=O)[nH]1	-7.77
CC(C)(C)c1ccc(C(=O)NCC(=O)OCC(=O)Nc2nc(-c3ccc(F)cc3)cs2)cc1	17.5
COc1ccc(/C=C/CN2CCN(CCc3ccccc3)C(CCO)C2)cc1 (stereo not shown)	-71.9
CCCCN(CC)CCNC(=O)C1c2cc(OC)c(OC)cc2C(=O)N2CCc3ccccc3C12 (stereo not shown)	-25.9
Cc1ccccc1S(=O)Cc1ccc(C(=O)NCCCN2CCCCC2)o1 (stereo not shown)	12.5
O=C(CSc1nnc2c(n1)[nH]c1ccc(F)cc12)Nc1ccccc1F	19.5
CC(=O)c1nc(N2C(=O)CC(Cc3cc(C)cc(C)c3)C2=O)sc1C (stereo not shown)	-8.57
Cc1cc([N+](=O)[O-])ccc1NC(=O)c1csc(C)c1C	13.3
Cc1cccc2c1cnn2C(=O)CCC(=O)NC1CCCCC1	7.26
C=CCn1c(-c2c(C)nc3cc(C)ccn23)n[nH]c1=S	-1.51
N#CC1=C(N)Oc2cc(O)c(Cl)cc2C1c1cccnc1 (stereo not shown)	-12.3
CCc1ccc(CCC(=O)Nc2sc(C)c(C)c2C(=O)OC)o1	-8.54
CC(=O)Nc1nnc(SCC(=O)N2C(C)CCCC2C)s1 (stereo not shown)	12.9

SMILES	hERG current change (%, negative = inhibition) at 10uM [%]
O=C(NCc1ccc(Cl)cc1)C1CCN(S(=O)(=O)c2cccc3nonc23)CC1	12.8
O=C(c1ccc(N2CCOCC2)cc1)N1CCCC(Nc2ccccc2)C1 (stereo not shown)	-0.285
Cc1ncc(C[n+]2csc(CCOC(=O)CC3C4CC5CC(C4)CC3C5)c2C)c(N)n1.Cl.[Cl-] (stereo not shown)	-19.8
COc1ccccc1NC(=O)COC(=O)/C=C/c1ccc2c(c1)OCO2	12.9
CC(C)C[C@@H]1NC(=O)[C@H](CO)NC(=O)c2cc([N+](=O)[O-])cc(I)c2OCC[C@@H](C(N)=O)NC1=O	2.3
COc1ccc(S(=O)(=O)NCc2ccc(C(=O)N3CCC4(CC3)OCCO4)cc2)cc1	-12
CN(C(=O)COC(=O)c1ccc(Cl)c(S(=O)(=O)N2CCCCC2)c1)C1(C#N)CCCCC1	-57.4
O=C(Oc1ccc(N(Cc2cccs2)C2=NS(=O)(=O)c3ccccc32)cc1)c1ccccc1Cl	-16.2
OCCCn1c(C(CO)Nc2nc(-c3ccc(Cl)cc3)cs2)nc2ccccc21 (stereo not shown)	-30
O=C(O/N=C\c1ccc(N2CCOCC2)c([N+](=O)[O-])c1)c1ccccc1Cl	-46.6
FC(F)(F)c1ccc(N2CCN(c3ncnc4c3nnn4Cc3ccccc3Cl)CC2)cc1	13.3
Cc1nnc(NCc2ccncc2)c2ccccc12	-8.54
O=C(COc1ccc2ccccc2c1)N1CCN(CC2CC3C=CC2C3)CC1.O=C(O)C(=O)O (stereo not shown)	-5.01
Cc1cc2c(cc1S(=O)(=O)Nc1ccc(F)cc1)n(C)c(=O)c(=O)n2C	-6.7
Cc1ccc2c(c1)N(CC(=O)N1CCc3ccccc3C1)C(=O)CO2	-0.485
Clc1ccc(-c2nc3ccccc3n2OCc2ccccc2)cc1	-6.06
CS(=O)(=O)Nc1ccccc1C(=O)N1CCOCC1	16.4
COc1ccc(CNC(=O)c2c[nH]c3ccccc3c2=O)cc1	10.2
CC(C)CCNC(=O)c1cc2c(s1)-c1ccccc1S(=O)(=O)C2	-3.55
C=CCn1c(SCC(=O)NC2CCCCC2)nnc1-c1ccccn1	-4.21
CCOC(=O)N1[C@@H]2C=C(C)[C@@H]2[C@@H]2[C@@H](C)C(=O)N21	-0.711
O=C(NNc1cc(Cl)ccc1Cl)c1c(F)cccc1Cl	-4.5
